Test results reported in PubChem BioAssay AID2675 (National Center for Advancing Translational Sciences (NCATS), 2010).
About 100 (0.036%) of roughly 280,000 compounds were called active. The inconclusive results got no clear call from the source; some entries with a clear call stand among them for comparison. Calls follow the shape of the dose curve; as a rule, active = well fitted inhibition curve with a large enough effect in the signal ratio, with a control signal flat (not every such curve was filed as active); inconclusive = small, poorly fitted or top-dose-only effect, or effect the other way, or a change in a side signal; inactive = no such curve, though single readings can be large or run the other way; the % refers to the signal ratio. Where the call is inconclusive, the potency comes from a doubtful curve fit. A note “side channel” means that the fit belongs to a control or component signal, not to the main read-out.
% is scaled to controls: 0 for no effect and ±100 for the full control effect; potency is read from the fitted curve at half-maximal effect; tags tell the direction and shape of the fitted curve or compound fluorescence and quenching.

What follows are compounds tested against Muscleblind-like protein 1 (Homo sapiens) (UniProt Q9NR56) (assay: qHTS Assay for Inhibitors of MBNL1-poly(CUG) RNA binding). Settings: TR-FRET MBNL1-His/biotin-(CUG)12 binding, 665/545 ratio; activity change, negative = inhibition: at 57.5 µM (top of the series).
Sequence of UniProt Q9NR56 (Q9NR56 whole entry, looked up): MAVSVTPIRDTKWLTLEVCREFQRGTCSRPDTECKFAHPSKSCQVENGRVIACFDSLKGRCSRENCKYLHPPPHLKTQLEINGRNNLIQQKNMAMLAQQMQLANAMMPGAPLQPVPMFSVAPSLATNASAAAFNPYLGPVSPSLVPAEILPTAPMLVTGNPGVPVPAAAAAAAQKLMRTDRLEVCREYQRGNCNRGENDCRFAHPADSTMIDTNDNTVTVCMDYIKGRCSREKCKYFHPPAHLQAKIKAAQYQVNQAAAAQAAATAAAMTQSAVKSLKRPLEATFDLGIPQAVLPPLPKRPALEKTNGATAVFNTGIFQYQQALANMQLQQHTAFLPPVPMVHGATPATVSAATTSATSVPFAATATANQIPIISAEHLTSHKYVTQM
In short: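 TR-FRET readout: Ex 340 nm, 665/545 nm emission ratio, normalized to buffer-only (basal) and MBNL1-(CUG)12 controls. Complex of MBNL1-His with Biotin-(CUG)12, compounds 92 nM–58 uM, incubated 60 min at room temperature.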
With `Cc1cc(SCC(=O)c2ccc(Cl)cc2)nc(=O)[nH]1` the Potency was inconclusive: 4.47 µM [quencher, side channel, full curve]. With `O=C(CSc1nnc(-c2ccccc2Cl)o1)Nc1ccc2c(c1)OCCO2` the Potency was inconclusive: 1.26 µM [quencher, side channel, full curve]. `CCOc1ccc(-c2cc(NC(=O)c3c(F)cccc3F)c(C(=O)O)s2)cc1` was tested, and the Potency was inconclusive: 0.708 µM [quencher, side channel, full curve, poor fit]. With `C=CCNC(=O)c1nc2ccccc2s1` the “activity change, negative = inhibition” value was inactive: -9.87%. `O=C(c1ccccc1)c1cnc(Nc2ccccc2Cl)s1` was tested, and the Potency was inconclusive: 17.8 µM [quencher, side channel, partial curve]. For `COc1ccc(C2CC(=O)C(CS(=O)(=O)c3ccccc3)C(=O)C2)cc1` (stereo unspecified), the Potency was inconclusive: 79.4 µM [inhibitor, single point]. With `COc1cccc(-n2c(O)c(C=NCc3ccccn3)c3ccccc3c2=O)c1` the Potency was inconclusive: 15.8 µM [quencher, side channel, partial curve]. For `CCc1ccc(OCC(=O)N/N=C/c2cc([N+](=O)[O-])ccc2N2CCOCC2)cc1`, the Potency was inconclusive: 15.8 µM [quencher, partial curve]. With `COC(=O)c1[nH]c2ccc(Cl)cc2c1NC(=O)Oc1ccccc1` the Potency was inconclusive: 14.1 µM [quencher, side channel, partial curve]. In the case of `Cc1cc(C)c2c(n1)sc1c(O)cc(=O)[nH]c12`, the “activity change, negative = inhibition” value is reported as inactive: 9.61%. For `Cc1ccc(/C=C(\NC(=O)c2ccc(C)cc2)C(=O)NCCCn2ccnc2)cc1`, the “activity change, negative = inhibition” value was inactive: 2.96%. With `O=C(Cc1ccccc1)NC1CCN(S(=O)(=O)c2cccc(F)c2)CC1` the “activity change, negative = inhibition” value was inactive: -8.63%. For `Cn1cc2ccc([N+](=O)[O-])cc2n1`, the Potency was inconclusive: 14.1 µM [quencher, side channel, partial curve]. In the case of `O=C(Nc1ccccc1N1CCN(C(=O)c2ccc(Cl)cc2)CC1)c1cccc(F)c1`, the “activity change, negative = inhibition” value is reported as inactive: -2.26%. For `Clc1ccc(-c2c(C3=NCCCN3)nnn2-c2ccc(Cl)cc2)cc1`, the Potency was inconclusive: 6.31 µM [fluorescent, side channel, single point]. With `COc1ccc2oc(=Nc3ccc(C(=O)O)cc3)c(C(=O)NCc3ccco3)cc2c1` the “activity change, negative = inhibition” value was inactive: 7.67%. `O=C(/C=C/c1ccccc1[N+](=O)[O-])NCCCn1ccnc1` was tested, and the Potency was inconclusive: 12.6 µM [quencher, side channel, partial curve]. With `c1cncc(CSc2nnc3ccc(-c4ccco4)nn23)c1` the Potency was inconclusive: 15.8 µM [quencher, partial curve]. `CCOC(=O)C(NCCc1ccccc1F)(NC(=O)CC)C(F)(F)F` (stereo unspecified) was tested, and the “activity change, negative = inhibition” value was inactive: -21%. For `COc1ccccc1CNC(=O)COc1ccc(C)nc1[N+](=O)[O-]`, the Potency was inconclusive: 17.8 µM [quencher, side channel, partial curve]. In the case of `N#C/C(=C/c1cn(-c2ccccc2)nc1-c1cccc(OCc2ccc(F)cc2)c1)C(=O)NCCCn1ccnc1`, the “activity change, negative = inhibition” value is reported as inactive: -17.7%. `COc1ccc(/C=C/c2cc[n+](C(=O)Cc3ccccc3)cc2)cc1` was tested, and the Potency was inconclusive: 10 µM [quencher, partial curve]. In the case of `N/C(=N\OC(=O)COc1cc(Cl)c(Cl)cc1Cl)c1ccncc1`, the “activity change, negative = inhibition” value is reported as inactive: -2.05%. `Cc1cccn2c(=O)c3cc(C(N)=S)c(=N)n(CCCOC(C)C)c3nc12` was tested, and the Potency was inconclusive: 11.2 µM [quencher, side channel, partial curve]. With `Cc1cc2ccccn2c1C(C[N+](=O)[O-])c1ccc(N(C)C)cc1` (stereo unspecified) the Potency was inconclusive: 17.8 µM [quencher, side channel, single point]. `CN1C(=O)C(=O)/C(=C(/O)c2ccccc2)C1c1ccc([N+](=O)[O-])cc1` (stereo unspecified) was tested, and the Potency was inconclusive: 25.1 µM [quencher, side channel, partial curve]. `COc1ccc2oc(=O)c(C(=O)NCc3ccccn3)cc2c1` was tested, and the Potency was inconclusive: 3.98 µM [quencher, side channel, partial curve]. In the case of `O=[N+]([O-])c1cccc(-c2nnc(SCc3cccnc3)o2)c1`, the Potency is reported as inconclusive: 12.6 µM [quencher, side channel, partial curve]. For `COc1cc(NC(=S)N2CCN(c3ccccn3)CC2)cc(OC)c1`, the “activity change, negative = inhibition” value was inactive: -24.7%. In the case of `Cc1ccc(-c2csc(N(CCO)CCCn3c(C(F)(F)F)nc4cc(C(F)(F)F)ccc43)n2)cc1`, the “activity change, negative = inhibition” value is reported as inactive: 0.0562%. `C/C(=N/NC(=O)C(=O)N/N=C(/C)c1ccccc1)c1ccccc1` was tested, and the “activity change, negative = inhibition” value was inactive: -2.48%. In the case of `FC(F)(F)c1cccc(NC(=S)NC(c2ccccc2)c2ccccc2)c1`, the Potency is reported as inconclusive: 28.2 µM [fluorescent, side channel, partial curve]. `O=C(CCNS(=O)(=O)c1cccc2nonc12)Nc1ccc(Cl)cc1` was tested, and the Potency was inconclusive: 14.1 µM [quencher, side channel, partial curve]. `O=C(N/N=C/c1c(O)ccc2ccccc12)c1ccc[n+](CCO)c1` was tested, and the Potency was inconclusive: 10 µM [quencher, partial curve]. `Cc1cc(C)nc(NN2C(=O)/C(=C/c3ccc(O)cc3)SC2=S)n1` was tested, and the Potency was inconclusive: 11.2 µM [quencher, side channel, partial curve]. `COc1ccc(-n2cnnc2SCC(=O)NC2CCCc3ccccc32)cc1` (stereo unspecified) was tested, and the “activity change, negative = inhibition” value was inactive: -15.9%. In the case of `Cc1ccc(C2CC(c3cccc(Cl)c3)n3nc(N)nc3N2)cc1` (stereo unspecified), the Potency is reported as inconclusive: 39.8 µM [quencher, side channel, single point]. With `COC(=O)c1sc(-c2ccc(Cl)cc2)cc1NC(=O)c1ccccc1C(=O)O` the Potency was inconclusive: 25.1 µM [quencher, side channel, partial curve]. For `CC(=O)N1N=C(c2ccccc2)CC1c1cccc([N+](=O)[O-])c1` (stereo unspecified), the Potency was inconclusive: 17.8 µM [quencher, side channel, single point]. For `COC(=O)c1cc(C(=O)N2CCN(C(=O)c3ccco3)CC2)cc([N+](=O)[O-])c1`, the Potency was inconclusive: 11.2 µM [quencher, side channel, partial curve]. In the case of `COC(=O)C1=C(Nc2ccc(C)cc2)C=C(C)C(C(=O)OC)C1c1ccc(OC)cc1` (stereo unspecified), the Potency is reported as inconclusive: 39.8 µM [inhibitor, single point]. In the case of `N/C(=N/S(=O)(=O)c1ccccc1)c1cccc([N+](=O)[O-])c1`, the Potency is reported as inconclusive: 14.1 µM [quencher, side channel, partial curve]. With `COc1ccc(C(=O)NC(=S)Nc2ccc(N3CCN(C(C)=O)CC3)cc2)cc1[N+](=O)[O-]` the Potency was inconclusive: 22.4 µM [quencher, side channel, partial curve]. For `CC1CCN(Cc2c(C(=O)N/N=C/c3ccc(C(F)(F)F)cc3)nnn2-c2nonc2N)CC1`, the Potency was inconclusive: 7.08 µM [fluorescent, side channel, single point]. For `COc1ccc(-c2nc3n(c(=O)c2C#N)CCS3)cc1`, the Potency was inconclusive: 28.2 µM [fluorescent, side channel, single point]. In the case of `O=C1C(=O)N(CNc2ccccn2)c2ccccc21`, the Potency is reported as inconclusive: 14.1 µM [quencher, side channel, partial curve]. In the case of `NC(=O)CNC(=O)[C@@H]1CC2(CC(c3cccc([N+](=O)[O-])c3)=NO2)CN1C(=O)c1ccccc1` (stereo partly specified), the Potency is reported as inconclusive: 15.8 µM [quencher, side channel, partial curve]. In the case of `N#CC1=C(N)SC(C(=O)c2ccccc2)C1c1cccs1` (stereo unspecified), the Potency is reported as inconclusive: 28.2 µM [quencher, side channel, single point]. With `CCC(C)NC(=O)c1cc2c(=O)n3cccc(C)c3nc2s1` (stereo unspecified) the Potency was inconclusive: 7.94 µM [quencher, full curve]. `CCn1cc(/C=N/NS(=O)(=O)c2ccc(C)cc2)c(C)n1` was tested, and the “activity change, negative = inhibition” value was inactive: -14.2%. `COc1ccc(CC(=O)Nc2ccc3c(c2)C(=O)N(CCC(=O)O)C3=O)cc1` was tested, and the Potency was inconclusive: 14.1 µM [quencher, side channel, partial curve]. With `COC(=O)c1cc(C(=O)N2CCN(c3cccc(Cl)c3)CC2)cc([N+](=O)[O-])c1` the Potency was inconclusive: 31.6 µM [quencher, side channel, single point]. For `FC(F)(F)c1cc(-c2cccs2)nc2ncnn12`, the Potency was inconclusive: 28.2 µM [quencher, partial curve]. With `CCOC(=O)C1CCCN(CC(O)COc2cccc(C)c2)C1` (stereo unspecified) the Potency was inconclusive: 0.199 µM [fluorescent, side channel, full curve, poor fit]. For `COC(=O)C1=CN(Cc2ccccc2)C=C(C(=O)OC)C1c1ccc(O)c(OC)c1`, the Potency was inconclusive: 39.8 µM [quencher, side channel, single point]. With `Cc1ccc[n+](CC(=O)Nc2ccc(Cl)c([N+](=O)[O-])c2)c1` the Potency was inconclusive: 8.91 µM [quencher, side channel, partial curve]. For `CC(CCc1ccccc1)NC(=O)c1cccc([N+](=O)[O-])c1` (stereo unspecified), the Potency was inconclusive: 3.16 µM [quencher, side channel, full curve]. `O=C(N/N=C/c1ccc2cccnc2c1)c1ccco1` was tested, and the Potency was inconclusive: 14.1 µM [quencher, partial curve]. In the case of `Cc1cc(OC(=O)c2cccc([N+](=O)[O-])c2)c(C)cc1CN1CCOCC1`, the Potency is reported as inconclusive: 15.8 µM [quencher, side channel, partial curve]. With `COc1cc(/C=C(\C#N)C(=O)Nc2cccc(C(=O)O)c2)ccc1OCc1ccc(F)cc1` the “activity change, negative = inhibition” value was inactive: 6.25%. For `COc1ccc(NC(=O)c2cc(C(C)C)on2)c(OC)c1`, the Potency was inconclusive: 1.26 µM [fluorescent, side channel, full curve, poor fit].
